The whole screen tested about 310,000 compounds, of which about 14,000 (4.5%) showed an effect of 50% or more. The effect is printed as a negative number. The list shows a part of the results. Where a SMILES comes first, the peptide text is derived from it. The star is where a group is joined. Cbz = O=C(OCc1ccccc1)*
target: human ether-à-go-go-related gene (hERG) potassium channel (human, UniProt Q12809); experiment: primary screen, population patch clamp on CHO cells stably expressing hERG
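Further: peak tail current of the secondary pulse compared with the same well before compound.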

human ether-à-go-go-related gene (hERG) potassium channel, sequence (Q12809 whole entry, looked up): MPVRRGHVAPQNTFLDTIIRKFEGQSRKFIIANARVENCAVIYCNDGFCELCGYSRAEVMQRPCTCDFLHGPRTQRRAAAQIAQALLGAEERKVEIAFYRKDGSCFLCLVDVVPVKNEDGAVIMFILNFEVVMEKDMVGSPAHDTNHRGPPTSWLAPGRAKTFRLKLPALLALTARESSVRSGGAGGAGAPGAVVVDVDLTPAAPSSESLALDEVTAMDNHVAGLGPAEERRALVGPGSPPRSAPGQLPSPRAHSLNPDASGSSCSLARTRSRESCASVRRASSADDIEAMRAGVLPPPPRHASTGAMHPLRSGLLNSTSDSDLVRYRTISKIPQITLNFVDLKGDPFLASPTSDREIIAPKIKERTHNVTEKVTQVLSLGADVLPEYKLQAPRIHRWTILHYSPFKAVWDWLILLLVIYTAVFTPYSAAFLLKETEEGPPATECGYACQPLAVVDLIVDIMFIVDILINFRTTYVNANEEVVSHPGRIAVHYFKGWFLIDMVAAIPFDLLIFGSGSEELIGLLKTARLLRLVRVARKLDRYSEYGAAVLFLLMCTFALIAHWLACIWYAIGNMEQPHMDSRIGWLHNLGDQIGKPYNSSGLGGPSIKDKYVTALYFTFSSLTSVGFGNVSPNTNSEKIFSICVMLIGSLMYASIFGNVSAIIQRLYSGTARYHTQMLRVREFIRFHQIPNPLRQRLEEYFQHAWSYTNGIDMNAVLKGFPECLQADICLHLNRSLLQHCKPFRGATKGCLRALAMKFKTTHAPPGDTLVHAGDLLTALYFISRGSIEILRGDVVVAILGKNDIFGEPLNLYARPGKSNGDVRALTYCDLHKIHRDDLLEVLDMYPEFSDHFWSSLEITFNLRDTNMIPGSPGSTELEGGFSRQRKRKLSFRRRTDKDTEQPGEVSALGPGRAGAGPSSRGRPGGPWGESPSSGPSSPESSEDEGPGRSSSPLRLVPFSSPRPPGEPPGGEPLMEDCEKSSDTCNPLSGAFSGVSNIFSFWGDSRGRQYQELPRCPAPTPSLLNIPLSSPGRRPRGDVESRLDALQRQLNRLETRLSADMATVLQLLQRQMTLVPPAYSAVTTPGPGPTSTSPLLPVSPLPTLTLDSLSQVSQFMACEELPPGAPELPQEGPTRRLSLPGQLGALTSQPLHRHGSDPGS

**Q.** How did the “hERG current change (%, negative = inhibition) at 10uM” value turn out when `CCOc1ccc(C(C)=O)cc1CSc1nnc(-c2ccoc2C)n1N` was run?
**A.** -3.47%

**Q.** With `CN(C)S(=O)(=O)Oc1ccsc1C(=O)Nc1ccc(C(F)(F)F)cc1` as the compound, how does the “hERG current change (%, negative = inhibition) at 10uM” value read?
**A.** -9.43%

**Q.** For `COc1ccc(CNc2nc(-c3cccnc3)nn2S(C)(=O)=O)cc1`, which “hERG current change (%, negative = inhibition) at 10uM” value is on record?
**A.** -7.9%

**Q.** How did the “hERG current change (%, negative = inhibition) at 10uM” value turn out when `CCCCOC(=O)c1ccc(NC(=O)c2ccoc2C)cc1` was run?
**A.** 9.42%

**Q.** `COc1ccc(CC2=C(O)c3ccccc3C(=O)C2=O)cc1` was tested. Which “hERG current change (%, negative = inhibition) at 10uM” value did it give?
**A.** 15.7%

**Q.** With `Cc1nn(Cc2ccccc2)c(C)c1NC(=O)CSc1nc(C2CC2)nc2c1cnn2-c1ccccc1` as the compound, how does the “hERG current change (%, negative = inhibition) at 10uM” value read?
**A.** 8.84%

**Q.** `CC(C)(C)c1ccc(-n2ncc3c2CCCC3NC(=O)CCN2CCCCC2=O)cc1` (centres unmarked) was tested. Which “hERG current change (%, negative = inhibition) at 10uM” value did it give?
**A.** -2.8%

**Q.** How did the “hERG current change (%, negative = inhibition) at 10uM” value turn out when `CNC(=S)N/N=C/c1ccc(-c2cc([N+](=O)[O-])ccc2Cl)o1` was run?
**A.** 20.5%

**Q.** For `CCOC(=O)/C(=C/c1ccccc1)NC(=O)c1ccco1`, which “hERG current change (%, negative = inhibition) at 10uM” value is on record?
**A.** -7.55%

**Q.** For `Cc1ccc(S(=O)(=O)NC(=O)c2cc(C)n(-c3cc(S(=O)(=O)N4CCOCC4)ccc3N3CCCC3)c2C)cc1`, which “hERG current change (%, negative = inhibition) at 10uM” value is on record?
**A.** -11.2%

**Q.** How did the “hERG current change (%, negative = inhibition) at 10uM” value turn out when `Cc1ccc(NCCC(=O)c2cccs2)cc1Cl` was run?
**A.** 10.2%

**Q.** For `CCOC(=O)Cn1c(C)nc2ccccc21`, which “hERG current change (%, negative = inhibition) at 10uM” value is on record?
**A.** -21.4%

**Q.** `COc1ccc(S(=O)(=O)N(C)C)cc1NC(=O)CCCSc1ccccc1` was tested. Which “hERG current change (%, negative = inhibition) at 10uM” value did it give?
**A.** -21.4%

**Q.** `O=C1/C(=C/c2cccs2)CCC1C1CCCC1` (centres unmarked) was tested. Which “hERG current change (%, negative = inhibition) at 10uM” value did it give?
**A.** -9.54%

**Q.** `CCOc1ccc(-c2c[n+]3c(n2-c2ccccc2)CCCCC3)cc1.[Br-]` was tested. Which “hERG current change (%, negative = inhibition) at 10uM” value did it give?
**A.** -64.7%

**Q.** `O=C(Nc1cc(-c2nc3ncccc3o2)ccc1Cl)c1ccc([N+](=O)[O-])o1` was tested. Which “hERG current change (%, negative = inhibition) at 10uM” value did it give?
**A.** -42.3%

**Q.** How did the “hERG current change (%, negative = inhibition) at 10uM” value turn out when `Cc1ccc(N=C2SCCCN2C(=O)C2=COCCO2)cc1Cl` was run?
**A.** 12.8%

**Q.** How did the “hERG current change (%, negative = inhibition) at 10uM” value turn out when `O=C(Nc1ccc2c(c1)OCO2)N1CCN(S(=O)(=O)c2ccc(Cl)cc2)CC1` was run?
**A.** -5.2%

**Q.** How did the “hERG current change (%, negative = inhibition) at 10uM” value turn out when `CCCN1CCC(N2CCN(c3cccc(C(F)(F)F)c3)CC2)CC1` was run?
**A.** -75.3%

**Q.** How did the “hERG current change (%, negative = inhibition) at 10uM” value turn out when `Cc1sc2ncn(CC(=O)NCCCC(=O)N3CCN(c4ccccc4)CC3)c(=O)c2c1C` was run?
**A.** -24.6%

**Q.** With `O=C(CSCC(=O)OCC(=O)c1ccc(Br)cc1)Nc1cccc2ccccc12` as the compound, how does the “hERG current change (%, negative = inhibition) at 10uM” value read?
**A.** -5.49%

**Q.** For `CC(C)/C=C1\CC/C(=C\c2ccc(N(C)C)cc2)C1=O`, which “hERG current change (%, negative = inhibition) at 10uM” value is on record?
**A.** 3.4%

**Q.** With `O=C(Nc1nc2c(s1)CCc1ccccc1-2)c1ccco1` as the compound, how does the “hERG current change (%, negative = inhibition) at 10uM” value read?
**A.** -45.3%

**Q.** How did the “hERG current change (%, negative = inhibition) at 10uM” value turn out when `COc1cccc(-n2c(C)nn(CCOc3ccccc3)c2=O)c1` was run?
**A.** 8.58%

**Q.** With `COc1cc(C2NC(=O)c3ccccc3O2)ccc1OC(C)C` (centres unmarked) as the compound, how does the “hERG current change (%, negative = inhibition) at 10uM” value read?
**A.** 18.9%

**Q.** How did the “hERG current change (%, negative = inhibition) at 10uM” value turn out when `Cc1cccc2cc(C#N)c(NCCNC(=S)NCCCN3CCOCC3)nc12` was run?
**A.** -36.3%

**Q.** For `COc1ccc(OCC(=O)NNC(=S)NC(=O)c2ccc(Br)o2)cc1`, which “hERG current change (%, negative = inhibition) at 10uM” value is on record?
**A.** 17.1%

**Q.** With `CC(=O)c1cccc(CN2CCCC(C(=O)c3ccc4c(c3)OCO4)C2)c1` (centres unmarked) as the compound, how does the “hERG current change (%, negative = inhibition) at 10uM” value read?
**A.** -64.9%

**Q.** How did the “hERG current change (%, negative = inhibition) at 10uM” value turn out when `Nc1ccc(C(=O)N/N=C\C=C\c2ccc([N+](=O)[O-])cc2)cc1` was run?
**A.** 12.2%

**Q.** For `Cc1ccc(C(=O)CN2C(=O)NC3(CCCCC3C)C2=O)s1` (centres unmarked), which “hERG current change (%, negative = inhibition) at 10uM” value is on record?
**A.** -8.45%

**Q.** For `CCOC(=O)N1CCN(C(=O)C(=O)NN)CC1`, which “hERG current change (%, negative = inhibition) at 10uM” value is on record?
**A.** 25.5%

**Q.** `O=[N+]([O-])c1ccc(C(O)CNC(=S)Nc2ccccc2)cc1` (centres unmarked) was tested. Which “hERG current change (%, negative = inhibition) at 10uM” value did it give?
**A.** -11.6%

**Q.** How did the “hERG current change (%, negative = inhibition) at 10uM” value turn out when `COC(=O)[C@H](C)NC(=O)Nc1ccc(C)c(C)c1` was run?
**A.** 17.6%

**Q.** With `COCCn1nnnc1C(c1ccccc1OC)N1CCN(C(=O)c2ccco2)CC1` (centres unmarked) as the compound, how does the “hERG current change (%, negative = inhibition) at 10uM” value read?
**A.** -16.1%

**Q.** How did the “hERG current change (%, negative = inhibition) at 10uM” value turn out when `COc1cccc(/C=N/Nc2cc(N3CCOCC3)ncn2)c1O` was run?
**A.** 7.93%

**Q.** How did the “hERG current change (%, negative = inhibition) at 10uM” value turn out when `O=C(NCc1ccccc1)c1ccc2c(c1)C(=O)N(Cc1cccnc1)C2=O` was run?
**A.** -15%

**Q.** How did the “hERG current change (%, negative = inhibition) at 10uM” value turn out when `O=C(N[C@@H](Cc1ccccc1)C(=O)N[C@@H](Cc1ccccc1)C(=O)O)OCc1ccccc1` (Cbz-Phe-Phe-OH) was run?
**A.** 1.13%

**Q.** For `Cc1ccc2c(c1)N(C(=O)CCC(=O)NC1CCN(Cc3ccccc3)CC1)CC(C)O2` (centres unmarked), which “hERG current change (%, negative = inhibition) at 10uM” value is on record?
**A.** -67.1%

**Q.** Which “hERG current change (%, negative = inhibition) at 10uM” value does the source give for `Cc1cc(-c2nnc(SCC(=O)Nc3cccc(Cl)c3)n2N)n[nH]1` here?
**A.** -71.9%

**Q.** For `Cc1cc(Nc2ccc(Cl)cc2)n2ncnc2n1`, which “hERG current change (%, negative = inhibition) at 10uM” value is on record?
**A.** -3.23%

**Q.** `OC1(c2ccccc2)C/C(=N\n2cnnc2)C=C1c1ccccc1` (centres unmarked) was tested. Which “hERG current change (%, negative = inhibition) at 10uM” value did it give?
**A.** 4.2%

**Q.** How did the “hERG current change (%, negative = inhibition) at 10uM” value turn out when `CCN1CCN(C(=O)CN(C)S(=O)(=O)c2ccc(OC)cc2)CC1` was run?
**A.** 9.43%

**Q.** With `C=CCN1CC(=O)N2Cc3[nH]c4ccccc4c3C[C@H]2C1=O` as the compound, how does the “hERG current change (%, negative = inhibition) at 10uM” value read?
**A.** 10.7%

**Q.** `Cc1cc(/N=C/C=C2\N(C)c3ccccc3C2(C)C)n(CCC#N)n1` was tested. Which “hERG current change (%, negative = inhibition) at 10uM” value did it give?
**A.** -29.8%

**Q.** How did the “hERG current change (%, negative = inhibition) at 10uM” value turn out when `CCOc1ccc2oc(C(=O)OCC(=O)NC(=O)NC)c(C)c2c1` was run?
**A.** 16.3%

**Q.** With `Cc1cccc(C(=O)OCC(=O)NCC2COc3ccccc3O2)c1` (centres unmarked) as the compound, how does the “hERG current change (%, negative = inhibition) at 10uM” value read?
**A.** 2.05%

**Q.** With `O=C(Nc1nnc(-c2cccs2)o1)C1CC1` as the compound, how does the “hERG current change (%, negative = inhibition) at 10uM” value read?
**A.** 3.93%

**Q.** `N#C/C(=C\c1c(F)cccc1Cl)c1nn(-c2ccccc2)c(-n2cccc2)c1C#N` was tested. Which “hERG current change (%, negative = inhibition) at 10uM” value did it give?
**A.** 13.6%

**Q.** `Cc1cc(C)c(S(=O)(=O)c2ccccc2C)c(OCC(C)(C)C)n1` was tested. Which “hERG current change (%, negative = inhibition) at 10uM” value did it give?
**A.** 0.171%

**Q.** For `C=C1CCN([C@@H](CC(C)C)C(=O)NCc2ccccc2)S(=O)(=O)c2ccccc21`, which “hERG current change (%, negative = inhibition) at 10uM” value is on record?
**A.** -9.68%

**Q.** `Cc1ccc(-n2ncc(Cl)c2C(=O)NC2CC2)cc1` was tested. Which “hERG current change (%, negative = inhibition) at 10uM” value did it give?
**A.** -17.7%

**Q.** For `O=c1c2c(nc3cc(-c4ccccc4)[nH]n13)CCS2`, which “hERG current change (%, negative = inhibition) at 10uM” value is on record?
**A.** 21.6%

**Q.** Which “hERG current change (%, negative = inhibition) at 10uM” value does the source give for `COc1ccc(NC(=O)CCNS(=O)(=O)c2ccc(C)c(C)c2)cc1OC` here?
**A.** 16.5%

**Q.** For `Cc1nnc(NC(=O)CCS(=O)(=O)Cc2ccccc2)s1`, which “hERG current change (%, negative = inhibition) at 10uM” value is on record?
**A.** -48.4%

**Q.** With `COc1cc(/C=C/C(=O)OCC(=O)NCCN2C(=O)CSC2=O)ccc1OCC#N` as the compound, how does the “hERG current change (%, negative = inhibition) at 10uM” value read?
**A.** -3.08%

**Q.** How did the “hERG current change (%, negative = inhibition) at 10uM” value turn out when `CCCNC(=S)N1CCC(NC(=O)C23CC4CC(CC(C4)C2)C3)CC1` was run?
**A.** -0.892%
